Screen size: about 310,000 compounds; about 14,000 (4.5%) showed an effect of 50% or more. The effect is printed as a negative number. Some of the results follow. Where a SMILES comes first, the peptide text is derived from it. The star is where a group is joined. Boc = CC(C)(C)OC(=O)*
These molecules were tested against human ether-à-go-go-related gene (hERG) potassium channel (human, UniProt Q12809) (assay: primary screen, population patch clamp on CHO cells stably expressing hERG).
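Further: peak tail current of the secondary pulse compared with the same well before compound.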

Sequence of human ether-à-go-go-related gene (hERG) potassium channel (Q12809 whole entry, looked up): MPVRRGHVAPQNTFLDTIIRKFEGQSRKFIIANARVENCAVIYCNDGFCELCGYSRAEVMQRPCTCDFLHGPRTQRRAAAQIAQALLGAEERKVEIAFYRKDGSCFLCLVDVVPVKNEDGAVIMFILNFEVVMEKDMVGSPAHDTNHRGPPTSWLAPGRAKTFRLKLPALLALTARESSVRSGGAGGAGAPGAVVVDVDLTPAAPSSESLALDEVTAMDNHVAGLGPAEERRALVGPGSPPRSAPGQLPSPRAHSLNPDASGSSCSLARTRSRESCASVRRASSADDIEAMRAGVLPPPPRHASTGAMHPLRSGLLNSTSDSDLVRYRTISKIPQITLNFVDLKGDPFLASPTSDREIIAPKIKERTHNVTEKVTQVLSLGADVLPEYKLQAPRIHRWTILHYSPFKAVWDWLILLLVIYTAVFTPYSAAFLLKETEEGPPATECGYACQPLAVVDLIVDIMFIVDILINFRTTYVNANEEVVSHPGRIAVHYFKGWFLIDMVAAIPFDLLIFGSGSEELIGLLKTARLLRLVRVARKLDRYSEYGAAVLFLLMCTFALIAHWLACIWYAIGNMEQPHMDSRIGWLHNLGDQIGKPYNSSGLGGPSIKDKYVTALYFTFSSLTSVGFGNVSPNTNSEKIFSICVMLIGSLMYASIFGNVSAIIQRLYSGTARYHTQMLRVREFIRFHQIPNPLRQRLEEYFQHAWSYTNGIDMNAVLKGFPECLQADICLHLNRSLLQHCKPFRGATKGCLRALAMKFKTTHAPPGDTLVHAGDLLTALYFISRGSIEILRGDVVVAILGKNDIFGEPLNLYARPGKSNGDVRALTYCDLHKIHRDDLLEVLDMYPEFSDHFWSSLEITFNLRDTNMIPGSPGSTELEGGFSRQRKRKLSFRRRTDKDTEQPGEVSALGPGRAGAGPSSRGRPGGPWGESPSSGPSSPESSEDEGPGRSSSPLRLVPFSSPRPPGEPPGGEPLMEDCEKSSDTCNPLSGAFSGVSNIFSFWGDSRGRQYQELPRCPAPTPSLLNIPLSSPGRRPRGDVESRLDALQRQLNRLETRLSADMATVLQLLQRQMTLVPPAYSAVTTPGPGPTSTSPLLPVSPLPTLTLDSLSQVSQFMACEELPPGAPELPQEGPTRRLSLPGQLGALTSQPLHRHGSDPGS

Row | SMILES | hERG current change (%, negative = inhibition) at 10uM
1 | CN(C)C(=O)Oc1cccc2c(OC(=O)N(C)C)cccc12 | 3.41%
2 | COc1ccc(NC(=O)c2ccc(S(=O)(=O)N3CCCC3)cc2)cc1OC | -158%
3 | COC(=O)c1ccccc1NC(=O)CSc1nnc(-c2cccnc2)n1C | -6.21%
4 | O=[N+]([O-])c1ccc(N2CCNCC2)c(Cl)c1 | -6.48%
5 | C=CCCC(=O)Nc1nc(C)c(-c2csc(Nc3ccc(Cl)cc3)n2)s1 | 14.9%
6 | Cn1c(=O)c2c(ncn2CCO)n(C)c1=O | 14.1%
7 | O=C1C(C=NCc2ccccn2)=C(O)c2ccccc21 | -10.1%
8 | O=C(CNc1cc(S(=O)(=O)N2CCOCC2)ccc1NCC1CCCO1)Nc1ccc(F)c(F)c1 (stereo not shown) | -24.4%
9 | Cc1cccc(N=C2NC(=O)S/C2=C\c2ccco2)c1 | 8.61%
10 | COCCn1c(COc2cccc(OC)c2)nnc1SCC(=O)NC1CCCC1 | -7.67%
11 | O=C(CCc1nnc(CCc2c[nH]c3ccccc23)o1)NC1CCC1 | 1.01%
12 | CSCCC(NS(=O)(=O)c1ccc2[nH]c(=O)c(=O)[nH]c2c1)C(=O)O (stereo not shown) | 1.26%
13 | COc1ccc(Nc2cccc3ccccc23)cc1 | 13.2%
14 | CCOc1ccc(CCNC(=O)CSc2n[nH]c(N)n2)cc1OCC | 16.7%
15 | Cc1nc2scc(C)n2c(=O)c1S(=O)(=O)Nc1ccc(N2CCOCC2)c(Cl)c1 | 14.8%
16 | COC(C(=O)Nc1ccnn1C1CCN(Cc2ccccn2)CC1)c1ccccc1 (stereo not shown) | 10.4%
17 | O=C(Nc1nc2ccc(Cl)cc2s1)C1CC1 | 28.7%
18 | CSc1ccccc1OCc1cc(C(=O)N2CCSCC2)no1 | 0.366%
19 | CC(C)OCP(=O)(c1ccccc1)c1ccccc1 | 2.96%
20 | O=C(O)[C@H](Cc1ccccc1)NC(=O)N1CCOCC1 | -7.49%
21 | COC(=O)C1CCN(C(=O)Cc2ccc(OC)c(OC)c2)CC1 | 0.292%
22 | COC(=O)C1CCN(C(=O)COC(=O)C2CCN(S(=O)(=O)c3ccc4c(c3)OCCO4)CC2)CC1 | 11.2%

Row | SMILES | hERG current change (%, negative = inhibition) at 10uM
23 | COCCN(C(=O)COC(=O)CCC(=O)c1ccc(C)cc1)c1c(N)n(Cc2ccccc2)c(=O)[nH]c1=O | -6.05%
24 | COc1ccc(S(=O)(=O)Oc2ccc3cccc(N)c3c2)cc1 | 4.34%
25 | CCOc1cc(CN2CCOCC2)cc(C(C)=O)c1.Cl | 3.45%
26 | Cc1c(Cl)cnc(NC(=O)COC(=O)c2nn(C)c(=O)c3ccccc23)c1Cl | -1.18%
27 | Cc1nnsc1C(=O)Nc1ccc(Cl)cc1 | -7.64%
28 | C=CCn1c(SCC(=O)c2c(N)n(C)c(=O)n(C)c2=O)nnc1-c1ccccc1F | 8.2%
29 | CC(=O)Nc1ccc(OS(=O)(=O)c2ccccc2C)cc1 | 23.5%
30 | Cc1cc(NC(=O)CCN2CC(C)OC(C)C2)ccc1Br.Cl (stereo not shown) | -7.73%
31 | CCN1C(=O)[C@H]2[C@@H](c3ccc(-c4ccc(Cl)c(Cl)c4)cc3)N[C@@](C)(C(=O)OC)[C@H]2C1=O.O=C(O)C(F)(F)F | 10.6%
32 | C=CCn1c(SCC(=O)Nc2ccc(Cl)cn2)nnc1C1CC1 | -5.04%
33 | Cc1cc(C)c(C#N)c(SCC(=O)N2CCN(Cc3ccccc3)CC2)n1 | -13.7%
34 | O=S1(=O)N=C(N(CCO)/N=C/c2ccccc2F)c2ccccc21 | -3.55%
35 | CCOC(=O)C1CCN(c2c(Nc3ccc(C)c(C)c3)c(=O)c2=O)CC1 | -12.6%
36 | C=CCOc1cccc(C(=O)N(C)C2CCCN(Cc3ccccc3F)C2)c1 (stereo not shown) | -7.06%
37 | CC(C(=O)c1ccc(Cl)cc1Cl)n1cncn1.O=[N+]([O-])O (stereo not shown) | 6.07%
38 | C[N+](C)=C1SCC(C)(/C=N/O)S1.[Br-] (stereo not shown) | 17.4%
39 | O=C(NC1CC1)c1cc(OCC(F)(F)F)ccc1OCC(F)(F)F | -7.48%
40 | Cc1cc(=S)cc(C)n1CCO | 15.8%
41 | Cc1c(Cc2ccccc2)c(=O)oc2cc(OCC(=O)N3CCC(C(N)=O)CC3)ccc12 | -5.95%
42 | O=C([O-])c1ccc(-[n+]2c(-c3ccccc3)cc(-c3ccccc3)cc2-c2ccccc2)cc1 | -0.807%
43 | Cc1ccnc(N/C=C(/NC(=O)c2ccccc2)C(=O)N/N=C\c2ccc(Cl)cc2)n1 | -22.6%
44 | CC(C)N(Cc1ccccc1)C(=O)CCc1ccccc1 | -9.16%

Row | SMILES | hERG current change (%, negative = inhibition) at 10uM
45 | O=S(=O)(Nc1ncccn1)c1ccc(-n2cnnn2)cc1 | 9.22%
46 | CCc1nnc(NC(=O)CSc2nnc(C(C)NC(=O)c3ccccc3)n2C)s1 (stereo not shown) | 29.3%
47 | Cl.O=C(Cc1ccccn1)Nc1ccccc1 | 7.99%
48 | CCN(CCn1cccn1)C(=O)c1cccc(OC2CCN(S(C)(=O)=O)CC2)c1 | 14.1%
49 | COc1ccc(C)cc1NC(=O)CN(c1ccc(F)cc1)S(C)(=O)=O | -22.8%
50 | CCCCC(=O)Nc1cccc(-c2cn3ccsc3n2)c1 | -2.04%
51 | CCCCC1=CC2=CC(=O)C(C)(OC(=O)CC)C(=O)C2=CN1CCCCO (stereo not shown) | 0.395%
52 | CC(OC(=O)CCOc1ccccc1)C(=O)Nc1ccc(Cl)cn1 (stereo not shown) | 5.41%
53 | CC(C)(C)C(=O)NCCCc1nc2ccccc2n1CCCOc1ccc(Cl)cc1 | -57.2%
54 | COC(=O)c1ccc(Oc2nc(NC(C)C)nc(NC(C)C)n2)cc1 | 7.64%
55 | CCCCNS(=O)(=O)c1ccc(OCC(=O)OC)cc1 | -33.1%
56 | CCNC(=O)Cn1cc(C(F)(F)F)cc(Cl)c1=O | 4.71%
57 | CCCNC(=O)COc1ccc2c(=O)c(Oc3ccccc3F)coc2c1 | -61.6%
58 | O=C(Nc1ccc(O)cc1)c1ccc2c(c1)C(=O)N(N1C(=O)c3ccccc3C1=O)C2=O | -4.59%
59 | COc1cc(-c2cc(C(=O)Nc3ccc(S(=O)(=O)NCc4ccco4)cc3)c3ccccc3n2)cc(OC)c1OC | 7.98%
60 | CC(=O)Nc1nc(-c2ccccc2)cc(-c2ccco2)c1C#N | 6.82%
61 | CCc1nnc(NS(=O)(=O)c2ccc(N=Cc3c(C)[nH]n(-c4ccc(C)cc4)c3=O)cc2)s1 | -7.16%
62 | Cc1cccc(C)c1NC(=S)NC1CCCCC1 | 8.33%
63 | CC(C)CNC(=S)NC1CC2CCCC(C1)N2C1CCCCC1 (stereo not shown) | 18%
64 | C#CCOCCOCCOCCNc1nc(N2CCN(C(=O)[C@H](CCC(=O)O)n3cc(C(N)CO)nn3)CC2)nc(N2CCN(C(=O)[C@H](CCC(=O)O)n3cc(C(N)[C@H](C)CC)nn3)CC2)n1.Cl (stereo partly shown) | -12.8%
65 | Cc1cc2c(o1)CC(C)(C)CC2=O | 16.8%
66 | O=C(c1ccc(COCC(F)(F)F)o1)N1CCCCCC1 | -12%

Row | SMILES | hERG current change (%, negative = inhibition) at 10uM
67 | CC(C)(C)OC(=O)N1CCCC1C(=O)NC(Cc1ccccc1)C(=O)O (stereo not drawn) (Boc-Pro-Phe-OH; configuration not given here) | 6.32%
68 | CC(=O)Oc1ccc2ccc(=O)oc2c1 | 27.2%
69 | COc1cc(C(=O)NCC(=O)OCC(=O)Nc2nnc(-c3ccccc3)o2)cc(OC)c1OC | 26.7%
70 | CCCCn1c(N)c(N(CC)C(=O)C2CCN(C(=O)c3ccccc3C)CC2)c(=O)[nH]c1=O | -2.13%
71 | Cc1ccc(S(=O)(=O)N2CCC3(CC2)OCCN3S(=O)(=O)c2c(C)cc(C)cc2C)cc1 | 14.3%
72 | CN(C)CCCN(C(=O)c1ccco1)c1nc2cc3c(cc2s1)OCO3.Cl | -43.7%
73 | FC(F)Sc1ccc(NC(=S)NCc2ccccc2)cc1 | -18.9%
74 | COc1c(F)cccc1C1=CC(=O)C[C@H](c2ccc3c(c2)OCO3)C1 | 19.8%
75 | CCCCN(Cc1ccccc1)C1CCN(Cc2ccccc2)CC1 | -53.5%
76 | O=C(NCC1CCCO1)C1CCN(C(=O)c2ccc(Cl)cc2)CC1 (stereo not shown) | -1.73%
77 | Cc1cccc(-n2cc(CN3CCN(Cc4nccn4C)CC3)c(-c3cccc(F)c3)n2)c1 | 2.98%
78 | C=C(C)c1cccc(C(C)(C)NC(=O)NC(c2ccccc2)c2ccc(OC)cc2)c1 (stereo not shown) | -20%
79 | CCC(=O)Nc1cccc(C2=NOC3(C2)C[C@@H](C(N)=O)N(C(=O)c2cc([N+](=O)[O-])cc([N+](=O)[O-])c2C)C3)c1 (stereo partly shown) | -9.23%
80 | C/C(=N\Nc1ccc(S(N)(=O)=O)cc1[N+](=O)[O-])c1ccco1 | -3.64%
81 | COc1ccc(C(=O)OC2C[C@H]3CC[C@H](C2)N3C)cc1OC.Cl (stereo partly shown) | -4.94%
82 | Cc1c(C(=O)N2CCN(c3ccc(C(F)(F)F)cn3)CC2)oc2ccccc12 | -4.85%
83 | CCNc1sc(S(C)(=O)=O)nc1S(=O)(=O)c1ccc(Cl)cc1 | 17.8%
84 | Cc1ccc(CNC(=O)C2(S(=O)(=O)c3ccc(C)cc3)CC2)cc1 | 4.02%
85 | O=C(NCCc1cccc(F)c1)C1CCCN(c2nc3ccccc3s2)C1 (stereo not shown) | 7.76%

Reference: PMC4336329 (PLoS ONE, 2015)
